Out of some 150,000 compounds screened, about 540 (0.36%) showed an effect of 50% or more. This is one part of the list.

In the assay the test system is Plasmodium falciparum. Briefly: Primary screen in NF54 nanoGlo assay, in single point, at 2uM, 72h; a lower Z score goes with more inhibition. It counts as functional, Erythrocyte. The note with it: timepoint 72 hour.
With `CN(C)C(=O)N(CCN1CCCCC1)[C@H]1CCN(C(=O)Cc2ccc(F)cc2)C1`, the “% Inhibition” value was -5% and the Z score is listed as 0.73.
On the same counts, the results for `CO[C@H]1CCCN(C(=O)CCN2CCCCC2=O)C1` are -6% and 0.84.
On the same counts, the results for `CC(C)CCOc1ccc(CN(CC(C)(C)N(C)C)S(=O)(=O)c2cccnc2)cc1` are -1% and 0.11.
For `CN(C1CCCCC1O)S(=O)(=O)c1ccc(N2CCCC2=O)cc1` (stereo not drawn), in that order: 9% and -1.68.
`CC1(C(=O)N2CCCC(CN3CCOCC3)C2)CC1(Cl)Cl` (stereo not drawn): the “% Inhibition” value is reported as -13% and the Z score came to 1.37.
For `O=C(COC(=O)c1cnc(O)nc1O)Nc1ccccc1F`, in that order: -8% and 1.55.
For the compound `CNS(=O)(=O)C1CCN(C(=O)NC2CCC2)CC1`, the “% Inhibition” value is recorded as -8% and the Z score was 1.25.
For `CCCc1ncncc1C(=O)N1CC[C@@](O)(C2CCOCC2)[C@H](C)C1`, in that order: 2% and -0.27.
With `CCC[C@H]1C(=O)NCCN1c1nc(C)nc2c1cnn2C`, the “% Inhibition” value worked out at 13% and the Z score is given as -1.72.
As to `CC(C)c1nnc(NC(=O)c2cnc3ccccc3n2)s1`, the “% Inhibition” value is reported as -12% and the Z score is on record as 1.55.
On the same counts, the results for `CC(C)CN(CC(F)(F)F)C(=O)CNc1ccc2c(c1)C(=O)NC2` are -8% and 1.
On the same counts, the results for `O=C(CCOc1ccccc1)N1C[C@@H](CN2CCOCC2)C[C@H](CO)C1` are -11% and 1.39.
As to `COc1ccc(C(=O)N[C@H]2CO[C@H]3[C@@H]2OC[C@@H]3n2nnnc2Oc2ccc3c(c2)OCO3)cc1`, the “% Inhibition” value was 12% and the Z score was -1.34.
Regarding `CC(C)C1CCC(NC(=O)N(C)C2CCC(CO)CC2)CC1` (stereo not drawn), the “% Inhibition” value is recorded as -5% and the Z score is listed as 0.75.
On the same counts, the results for `CCC(CC)CN1CC2(CCN(Cc3cnn(C)c3C)CC2)OC1=O` are -9% and 1.72.
On the same counts, the results for `O=C(N[C@@H]1COCC[C@@H]1Oc1cccc(F)c1)c1cnccn1` are 6% and -0.59.
On the same counts, the results for `O=C(c1ccc(Cl)s1)N1CCN(c2ncc(F)cn2)C(=O)C1` are 19% and -2.35.
Take `CCCCN(C)C(=O)Cc1c(C(=O)O)c(C)cn1CC`: the “% Inhibition” value is listed as -7% and the Z score was 0.93.
On the same counts, the results for `Cc1ccc(C)c(NS(=O)(=O)c2cc(C(=O)NC3CC3)ccc2Cl)c1` are -48% and 5.69.
On the same counts, the results for `C=CCn1ncc2c(=O)[nH]c(N3CCC[C@H](n4ccnc4C)C3)nc21` are 2% and -0.4.
For `O=C(C1COCCN1)N1CCCC(CN2CCN(c3ccccn3)CC2)C1` (stereo not drawn), in that order: 12% and -1.73.
For the compound `O=C(O)c1csc(-c2csc(CCN3C(=O)c4ccccc4C3=O)n2)n1`, the “% Inhibition” value was 36% and the Z score is -4.1.
Turning to `CC1CN(S(=O)(=O)c2cccc3nonc23)CC(C)O1` (stereo not drawn), the “% Inhibition” value was -13% and the Z score turned out to be 2.54.
Regarding `O=C(Cn1c(=O)n(CC2CCC(C(=O)NCCc3ccccc3)CC2)c(=O)c2ccccc21)Nc1ccccc1` (stereo not drawn), the “% Inhibition” value is 2% and the Z score was -0.31.
For `COCCN(Cc1c(C(C)C)nn(-c2ccccc2)c1Oc1ccccc1F)C(=O)C1CCC1`, in that order: 0% and -0.05.
On the same counts, the results for `Cn1c(=O)n([C@H]2CCCN(C(=O)NC3CCCCC3)C2)c2ncccc21` are -2% and 0.39.
On the same counts, the results for `C[C@@H](C(=O)NCC(=O)C1CC1)n1nnnc1C(C)(C)C` are -13% and 1.1.
`Cc1cc(Cl)c2ccccc2c1NC(=O)C1CCOCC1`: the “% Inhibition” value is on record as -13% and the Z score was 1.98.
With `C[C@H](NC(=O)COc1ccc(-c2ncccn2)cc1CN(C)C)c1ccco1`, the “% Inhibition” value was -7% and the Z score was determined as 0.77.
For `Cc1cccc(NC(=O)NCCCNC(=O)C2CCC2)c1Cl`, in that order: -18% and 3.45.
On the same counts, the results for `Cc1c(NC(=O)N[C@H]2CCCC23CCOCC3)cccc1N(C)C` are -2% and 0.27.
On the same counts, the results for `CC(=O)N[C@H]1C[C@H]2CN(Cc3ccc(F)cc3Cl)[C@@H](C)C(=O)N2C1` are -23% and 2.06.
For `CC1(C)CN(CCCC#N)c2cccc(Cl)c21`, the “% Inhibition” value is on record as -4% and the Z score amounted to 0.51.
For `Cc1nc(-n2cnnc2)ccc1-c1ccc(C(=O)N2CC[C@@H](O)C2)cc1`, in that order: -10% and 1.72.
Turning to `Cc1cc(CC(=O)N(Cc2cc(F)ccc2F)C2CCCC2)no1`, the “% Inhibition” value amounted to 2% and the Z score is listed as -0.37.
On the same counts, the results for `Cc1nc(C2CCCN2CC(O)Cn2cccn2)[nH]c1C` (stereo not drawn) are -3% and 0.55.
For the compound `Cc1c(Cl)cccc1N1C(=O)CN(S(=O)(=O)c2ccccc2)C[C@@]1(C)C(=O)NCCC(C)C`, the “% Inhibition” value is 3% and the Z score was -0.33.
As for `CCC(C)(C)C(=O)N1CCN(c2ncccc2NC(=O)c2ccc3c(c2)OCO3)CC1`, the “% Inhibition” value was 3% and the Z score was -0.44.
On the same counts, the results for `CC(NC(=O)Nc1cc(C2CCCOC2)nn1C)c1ccc(F)cc1F` (stereo not drawn) are 15% and -1.88.
`O=C(N[C@H]1CCCc2c(O)cccc21)c1cnc2ccccc2n1`: the “% Inhibition” value is on record as -5% and the Z score is 0.68.
Consider `CNC(=O)[C@H]1CCN(C(=O)c2coc(-c3ccccc3Cl)n2)C1`, for which the “% Inhibition” value was -3% and the Z score came out at 0.39.
Turning to `Cc1ccc2nc3c(N(C)C)[nH]cnc-3c2c1`, the “% Inhibition” value is recorded as -6% and the Z score turned out to be 1.11.
On the same counts, the results for `O=C1NC[C@H]2CN(Cc3ccc(OC(F)(F)F)cc3)CCN12` are 19% and -2.25.
For `COc1ccc(-c2ncc(Cl)cn2)c(OC)n1`, in that order: 1% and -0.14.
On the same counts, the results for `COc1cc(CN2CCOC(C)(C)C2)ccc1OC[C@@H](O)CN1CCCC1` are -6% and 0.91.
Take `COC[C@H]1CCCN(Cc2cccc(OC)c2C)CC1`: the “% Inhibition” value is listed as -6% and the Z score turned out to be 0.62.
For `COc1ccc(-c2c(C(=O)NC3CC3)nn3c(C)cc(C)nc23)cc1S(=O)(=O)N1CCCCC1`, in that order: -6% and 1.11.
On the same counts, the results for `CCOc1ccc(NC(=O)N2C[C@H]3CC[C@@H](C2)[C@H]3OC)cc1C(F)(F)F` are -10% and 0.98.
In the case of `O=C(NC[C@@H]1Cc2ccccc2CO1)NC1CCCC(N2CCCC2=O)C1` (stereo partly drawn), the “% Inhibition” value was found to be 1% and the Z score was -0.09.
For `CCCCC(N)C(=O)N1CCCC(OC)C1` (stereo not drawn), the “% Inhibition” value is -4% and the Z score is given as 0.67.
`CN1CC[C@@H]2CN(C(=O)c3ccc4sccc4c3)C[C@]2(C(=O)O)C1`: the “% Inhibition” value is listed as -10% and the Z score is recorded as 1.86.
On the same counts, the results for `CCC#CCN1CCC[C@H](CN2CCCC2=O)C1` are 11% and -1.81.
On the same counts, the results for `O=C1NC[C@H]2CN(CC=Cc3ccc(F)cc3)CCN2C1=O` are 1% and -0.04.
For `CCN1CCc2c(c(CN(CC(C)C)C(C)=O)nn2-c2ccccc2)C1`, in that order: 6% and -1.08.
As to `O[C@H]1CC[C@H](Nc2ncc(Cl)cc2F)CC1`, the “% Inhibition” value was 7% and the Z score is -0.85.
For `Cc1nnc(CN(C)CCN(C)C2CCCC2)o1`, in that order: 9% and -1.11.
On the same counts, the results for `COc1nccc(N(C)C)c1NC(=O)CCCc1ccccn1` are -5% and 0.66.
For `Cc1cc(S(=O)(=O)NC2CCCC2C(N)=O)sc1C` (stereo not drawn), the “% Inhibition” value turned out to be 0% and the Z score was found to be 0.05.
Take `NC(=O)c1ccccc1OCC#CCNC(=O)c1cncc(Br)c1`: the “% Inhibition” value is given as -10% and the Z score was determined as 1.27.
For `Cc1cc2c(cc1C)N(CC(=O)Nc1cc(Cl)ccc1C)C(=O)CC(c1cccs1)=N2`, in that order: 0% and 0.04.
In the case of `CC(CO)(CO)NC(=O)c1ccc(Br)cc1`, the “% Inhibition” value is reported as 32% and the Z score is -1.28.
For `Fc1cccc(F)c1-n1c(COc2ccc(Cl)cc2)csc1=S`, in that order: 34% and -4.36.
For `CC1(C)C[C@@H](NC(=O)c2cn(CCCc3ccccc3)nn2)CCO1`, in that order: -1% and 0.11.
For `CCc1nn(C[C@H](O)c2ccc(Cl)cc2)c(=O)c(C#N)c1CC`, in that order: -1% and 0.17.
Consider `Cc1n[nH]c(C2CN(CC(O)COCc3ccco3)CCO2)n1` (stereo not drawn), for which the “% Inhibition” value worked out at 0% and the Z score turned out to be 0.04.
On the same counts, the results for `O=C(NCC1CCCO1)C1Cc2cc(C(F)(F)F)ccc2N2CCN(c3ccccc3F)CC12` (stereo not drawn) are -18% and 1.98.
On the same counts, the results for `Cc1cccc(NC(=O)N2CCC(Cc3nncn3Cc3ccccc3)CC2)c1` are 5% and -0.53.
For `CCCn1c(=O)c(C(=O)N(CC)CC)nn(-c2ccc(Cl)cc2)c1=O`, in that order: -6% and 0.98.
For the compound `O=C(CN1CCCC1)N(CC(F)(F)F)c1ccc(Cl)cc1`, the “% Inhibition” value is -11% and the Z score was 1.06.
For `CC[C@@H](C(=O)Nc1nccs1)N(C)Cc1ccnc(C)c1`, in that order: 1% and -0.12.
Take `CCS(=O)(=O)c1cc(Cl)cc(CNCc2ccn(C)n2)c1`: the “% Inhibition” value is -2% and the Z score is reported as 0.22.
On to `CCOc1ccc(-c2noc(CN3N=NC4C(=O)N(c5ccc(CC)cc5)C(=O)C43)n2)cc1OC` (stereo not drawn), for which the “% Inhibition” value turned out to be 1% and the Z score is listed as -0.14.
On the same counts, the results for `CC(C)N(C)c1nc(N2CCN(c3ccccc3)CC2)nc2c1CN(C(=O)c1ccc(F)cc1F)CC2` are -8% and 0.76.
`O=C1N[C@@H](c2cc3c(cc2Br)OCO3)Nc2c1sc(=S)n2-c1ccccc1`: the “% Inhibition” value came out at 1% and the Z score is -0.17.
For `O=C(Cn1cnc2ccccc2c1=O)NCc1ccc(-c2ccoc2)nc1`, in that order: 7% and -0.92.
For `Cc1cc(C)c2ncn(CCCc3nnn[nH]3)c(=O)c2c1`, in that order: -10% and 1.82.
As for `Fc1cc(F)cc(CN2C[C@@H](n3ccnc3)Cc3ccccc32)c1`, the “% Inhibition” value came to 7% and the Z score was -0.92.
For `C[C@@H]1CN(CCCc2cn[nH]c2)C[C@H](C)O1`, in that order: -11% and 2.23.
For `O=C1NCCCc2[nH]c(-c3noc(C4CC4)n3)nc21`, in that order: -9% and 1.08.
For `Cc1cccc2oc(CNc3cc([C@H]4C[C@@H](O)C4)nc(N)n3)nc12`, in that order: -7% and 1.15.
For the compound `CC1C(NC(=O)C2CC(C)(O)C2)CC(=O)N1Cc1ccccc1` (stereo not drawn), the “% Inhibition” value is recorded as -1% and the Z score turned out to be 0.16.
For `CC(C)(CNC(=O)N1CC[C@H](Cc2nccs2)C1)c1cccnc1`, in that order: -6% and 0.93.
For `CCOCCCNC(=O)c1cn2c3c(cccc3c1=O)C[C@@H]2C`, the “% Inhibition” value is given as -3% and the Z score was 0.39.
With `O=C(CC1CCCCCC1)N1CCCN(C(=O)c2ccc[nH]2)CC1`, the “% Inhibition” value is reported as -14% and the Z score stood at 1.36.

For orientation: % Inhibition means the drop in the measured response relative to a control, in per cent.
